The text below walks through data of the RNAGym collection of RNA variant scans (doi:10.7554/elife.90254).

B1: LINE1-full (parent)
chain: UACGUAGGUGGUUUUCCCCUGAUAGUGCUAAGGGGGCCUGGAAGUUUGGACUGGGCAGAGCUCAACACAGCGUGGCAAAGUGGCUGUGGCUAGACUGCCUCUCUGGAUUCCUCGUCACUCAGCAGGGCAUCUCUGAGAGAAAUGCC

The source gives no read counts; variants with many changes may rest on few reads.

The variants in the series derive from B1. Briefly: self-cleavage, relative activity (ratio to wild type); higher = more cleavage; in vitro, sequencing; the parent is a self-cleaving ribozyme.
Take AACGUAGGUGGUUUUCCCCUGAUAGUGCUAAGGGGGCUUGGAAGUUUGGACUGGGCAGAGCUCAACACAGCGCGGCAAAGUGGCUGUGGCUAGACUGCCUCUCUGGAUUCCUCGUCACUCAGCAGGGCAUCUCUGAGAGAAAUGCC: the self-cleavage stood at 0.61.
The same measure for AACGUAGGUGGUUUUCUCCUGAUAGUGCUAAGGGGGCCUGGAAGUUUGGACUGGGCAGAGCUCAACACAGCGUGGCAAAGUGGCUGUGGCUAGACUGCCUCUCUGGAUUCCUCGUCACUCGGCAGGGCAUCUCUGAGAGAAACGCC: 1.31.
As to AACGUAGGUGGUUUUCCCCUGAUAGUGCUAAGGGGGCCUGGAAGUUUGGACUGGGCAGAGCUCAACUCAGCGUGGCAAAGUGGCUGUGGCUAGACUGCCUCUCUGGAUUCCUCGUCACUCAGCUGGGCAUCUCAGAGAGAGAUGCC, the self-cleavage turned out to be 0.19.
Turning to AACGUAGGUGGUUUUCCCCUGAUAGUGCUAAGGGGGCCUGGAAGUUGGGACUGGGCAGAGCUCCACACAGCGUGGCAAAGUGGCUGUGGCUAGACUGCCUCUCUGGACUCCUCGUCACUCAGCAGGGCAUCUCUGAGAGAAAAGCC, the self-cleavage is 0.32.
The value for AACGUAGGCAGUUUUCCCCUGAUAGUGCUAAGGGGGCCUGGAAGUUUGGACUGGGCAGAGCUCAACACAGCGUGGCGAAGUGGCUGUGGCUAGACUGCCUCUCUGGAUUCCUCGUCACUCAGCAGGGCAUCUCUGAGAGAAAUGCC was 1.59; that for AACGUAGGCGGUUUUCCCCUGAUAGUGCUAAGGGGGCCUGGAAGCUUGGACUGGGCAGAGCUCAACACAGCGUGGCAAGGUGGCUGUGGCUAGACUGCCUCUCUGGAUUCCUCGUCACUCAGCAGGGCACCUCUGAGAGAAAUGCC was 0.
The value for AACGUAGGUGGUUUUCCCCUGAUAGUGCUAAGGGGGCCUGGAAGUUUGGACUGGGCAGAGCUCAACACUGCGUGGCAAAGUGGCUGUGGCUAGACUGCCUCUCUGGAUCCCUCGUCACUCAGCAGGGCACCUCUGAGAGAAAUACC was 0.17; that for AACGUAGGUGGUUUUCCCCUGAUAGUGCUAAGGGGGCCAGGAAGUUUGGACUGGGCAGAGCUCAACACAGCGUGGCAAAGAGGCUGUGGCUAGACUGCCUCUCUGGAUUCCUCGUCACUCAGCAGGGCAUCUCUGAGAGGAAUGCC was 1.85.
With AACGUAGGUGGUUUUCCCCUGAUAGUGCCAAGGGGGCCUGGAAGUUUGGACUGGGCAGAGCUCAACACAGCGUGUCAAAGUGGCUGUGGCUAGACUGCCUCUCUGGAUUCCUCGACACUCUGCAGGGCAUCUCUGAGAGAAAUGCC, the self-cleavage amounted to 0.76.
The value for AACGUAGGUGGUUUUCCCCUGAUAGUGCUAUGGGGGCCUGGAAGUUUGGACUGGGCAGAGCCCAACACAGCGUGGCAAAGUGGCUGUGGCUAGACUGCCUCUCUGGAUUCCUCGUCACUCAGCAGGGCAUCUCUGAGAGAAAUGCC was 0; that for AACGUAGGUGGUUUUCCCCUGAUAGUGCUAAGGGGACCUGGAAGUUUGGACUGGGCAGUGCCCAACACAGCGUGGCAAAGUGGCUGUGGCUAGACUGCCUCUCUGGAUUCCUCGUCACUCAGCAGGGCAUCUCUGGGAGAAAUGCC was 0.07; that for AACGUAGGUGGUUUUCCCCUGAUAGUGCUAAGGGGGCCUGGAAGUUUGGACUGGGCAGAGCACAACACAGCGUGGCAAAGUGGCCGUGGCUAGACUGCCCCUCUGGAUUCCUCGUCACUCAGCAGGGCAUCUCUGAGAGAAAUGCC was 0.
With AACGUAGGUGGUUUUCUCCUGAUAGUGCUAAGGGGGCCUGGAAGUUCGGAUUGGGCAGAGCUCAACACAGCGUGGCAAAGUGGCUGUGGCUAGACUGCCUCUCUGGAUUCCUCGUCACUCAGCAGGGCAUCUCUGAGAGAAAUGCC, the self-cleavage turned out to be 1.18.
The value for AACGUAGGUGGUUUUCCCCUGAUAGUGCUGGGGGGGCCUGGUAGUUUGGACUGGGCAGAGCUCAACACAGCGUGGCAAAGUGGCUGUGGCUAGACUGCCUCUCUGGAUUCCUCGUCACUCAGCAGGGCAUCUCUGAGAGAAAUGCC was 0.69; that for AACGUAGGUGGUUUUCCCCUGAUAGUGCUAAGGGGGCCUGGAAGCUUGGACUGGGCAGAGCUCAACACAGCGCGGCAAAGUGGCUGUGGCUAGACUGCCUCUCUGGAUUCCUCGUCACUCAGCAGGGCAUCUCUGAGAGAAAUGCC was 0.53.
The value for AACGUAGGUGGUUUUCCCCUGAUAGAGCUAAGGGGGCCUGGAAGUUUGGACUGGGCAGAGCUCAACACAGCGUGGCGAAGUGGCUGUGGCUAGACUGCCUCUCUGGAUUCCUCGUCACUCAGCAGGGCAUCUCUGAGAGAAAUGCC was 0.48; that for AACGUAGGUGGUUUUCCCCUGAUAGUGCUAAGGGGGCCAGGAAGUUUGGACUGGGCAGAGCUCAACACAGCGAGGCAGAGUGGCUGUGGCUAGACUGCCUCUCUGGAUUCCUCGUCACUCAGCAGGGCAUCUCUGAGAGAAAUGCC was 1.53; that for AACGUAGGUGGUUUUCCCCUGAUAGUGCUAAGGGGGCCUGGAAGUUUGGACUGGGCAGAGCUCAACACAGCGUGGCUAGGUGGCUGUGGCUAGACUGCCUCUCUGGACUCCUCGUCACUCAGCAGGGCAUCUCUGAGAGAAAUGCC was 0.34.
The same measure for AACGUAGGUGGUCUUCCCCCGAUAGUGCUAAGGGGGCCUGGAAGUUCGGACUGGGCAGAGCUCAACACAGCGUGGCAAAGUGGCUGUGGCUAGACUGCCUCUCUGGAUUCCUCGUCACUCAGCAGGGCAUCUCUGAGAGAAAUGCC: 1.02; for AACGUAGGUGGUUUUCCCCUGAUAGUGCUAAGGGGGCCAGGAAGUUUGGACUGGGCAGAGCUCAGCACAGCGUGGCAAAGUGGCUGUGGCUAGACUGCCUCUCUGGAUUCCUCGUCACUCUGCAGGGCAUCUCUGAGAGAAAUGCC: 0.26.
As to AACGUGGGUGGUUUUCCCCUGAUAUUGCUAAGGGGGCCUGGAAGUUUGGACUGGGCAGAGCUCAACACAGCGUGGCAAAGUGGCUGUGGCUAGACUGCCUCUCUGGAUUCCGCGUCACUCAGCAGGGCAUCUCUGAGAGAAGUGCC, the self-cleavage was 0.47.
Take AACGUAGGUGGUUUUCCCCUGAUGGUGCUAAGGGGGCCUGGAAGUUUGGAUUGGGCAGAGCUCAACACAGCGUGGCAAAGUGGCUGUGGCUAGACUGCCUCUCUGGAUUCCUCGUCACUCAGCAGGGCAUCUCUGAGAGAAAUGCC: the self-cleavage was 0.79.
The same measure for AACGUAGGUGGUUCUCCCCUGAUAGUGCUAAGGGGGCCUGGAAGUUUGGACUGGGCAGAGCUCAACACAGCGUGGCAAGGUGGCAGUGGCUAGACUGCCUCUCUGGAUUCCUCGUCACUCAGCAGGGCAUCUCUGAGAGAAAUGCC: 0.32.
The same measure for AACGUAGGUGGUUCUCCCCUGAUAGUGCUAAGGGGGCCUGGAAGUUUGGACUGGGCAGAGCUCAACACAGCGUGGCAAAGUGGCCGUGGCUAGACUGCCUCUCUGGAUUCCUCGUCACUCAGCAGGGCAUCUCUGAGAGAAAUGCC: 0.36; for AACGUAGGUGGUUUUCCCCCGAUAGUGCUAAGGGGGCCUGGAAGUUUGGACUGGGCAGAGCUCAACACAGCGAGGCAAAGUGGCAGUGGCUAGACUGCCUCUCUGGAUUCCUCGUCACUCAGCAGGGCAUCUCUGAGAGAAAUGCC: 0.21.
The same measure for AACGUAGGUGGUUUUCCCCGGAUAGUGCUAAGGGGGCCUGGAAGUUCGAACUGGGCAGAGCUCAGCACAGCGUGGCAAAGUGGCUGUGGCUAGACUGCCUCUCUGGAUUCCUCGUCACUCAGCAGGGCACCUCUGAGUGAAGUGCC: 0.57; for AACGUAGGUGGUUUUCCCCUGAUAGUGCUAAGGGGGCCUGGGAGUUUGGACUGGGCGGAGCUCAACACAGCGUGGCAAAGUGGCUGUGGCUAGACUGCCUCUCUGGAUUCCUCGUCACUCAGCAGGGCAUCUCUGAGAGAAAUGCC: 0.38; for AACGUAGGUGGUUCUCCCCUGAUAGUGCUAAGGGGGCCUGGAAGUUUGGGCUGGGCAGAGCUCAACACAGUGUGGCAAAGUGGCUGUGGCUAGACUGCCUCUCUGGAUUCCUCGUCACUCAGCGGGGCAUCUCUGAGAGAAAUGCC: 0.09.
AACGUAGGUGGUUUUCCCCUGAUAGUGCUAAGGGUGCCUGGAUGUUUGGACUGGGCAGAGCUCGACACAGCGUGGCAAAGUGGCUGUGGCUAGACUGCCUCUCUGGAUUCCUCGUCACUCGGCAGGGCAUCUCUGAGAGAAAUGCC: the self-cleavage amounted to 0.18.
The same measure for AACGUAGGUGGUUUUCCCCUGAUAGUGCCAAGGGGGCCUGGAAGUUUGGACUGGGCAGAGCUCAACACAGUGUGGCAAAGUGGCUGUGGCUAGGCUGCCUCUCUGGAUUCCUCAUCACUCAGCAGGGCAUCUCUGAGAGAAAUGCC: 0.35; for AACGUAGGUGGUUUUCCCCUGAUAGUGCUAAGGGGGCCUGGAUGUUUGGACUGGGCGGAGCUCAACACAGCGUGGCAAAGUGGCUGUGGCUAGACUGCCUCUCUGGAUUCCUCGCCACUCAGCAGGGCAUCUCUGAGAGAAAUGCC: 1.02; for AACGUAGGUGGUUCUCCCCUGAUAGUGCUAUGGGGGCCUGGAAGUUUGGACUGGGCAGAGCUCAACACAGCGUGGCAAAGUGGCUGUGGCUAGACUGCCUCUCUGGAUUCCUCGUCACUCUGCAGGGCAUCUCUGAGAGAAAUGCC: 1.33.
AACGUAGGUGGUUUUCCCCUGAUAGUGCUAAGGGGGCCUGGAAGUUUGGACUGGGCUGAGCUCAACACAGCGUGGCAGAGUGGCUGUGGCUAGACUGCCUCUCUGGAUUCCUCGUCACUCAGCAGGGCAUCUCUGAGAGAAGUGCC: the self-cleavage turned out to be 0.07.
On to AACGUAGGUGGUUUUCCCCUGAUAGUGCUAAGGGGGCCUGGAAGUUUGGACUGGGCAGAGCUCUACACAGCGUGGCAAAGUGGCUGUGGCUAGACUGCCUCUCUGGAUUCCCCGUCACUCAGCAGGGCAUCUCUGAGAGAAAUGCC, for which the self-cleavage stood at 0.51.
The value for AACGUAGGUGGUAUUCCCCUGAUAGUGCUAAGGGGGCCUGGAAGUUUGGACUGGGCAGAGCUCAACACAGCGUGGCGAAGUGGCUGUGGCUAGACUGCCUCUCUGGAUUCCUCGUCACUCCGCAGGGCAUCUCUGAGUGAAAUGCC was 1.31; that for AACGUAGGUGGUUUUCCCCUGAUAGUGCUAAGGGGGCCUGGAAGUUAGGACUGGGCAGAGCUCAACACAGCGUGGCAAGGUGGCUGUGGCUAGACUGCCUCUCUGGAUUCCUCGUCACUCAGCAGGGCAUCUCUGAGAGAAAUGCC was 0.68.
Regarding AACGUAGGUGGUUUUCCCCUGAUAGUGCUAAGGGGGCCUGGAAGCUUGGACUGGGCAGAGCCCAACACAGCGCGGCAAAGAGGCUGUGGCUAGACUGCCUCUCUAGAUUCCUCGUCACUCAGCAGGGCAUCUCGGAGAGAUAUGCC, the self-cleavage came to 0.
The value for AACGUAGAUGGUUUUCCCCUGAUAGUGCUAAGGGGGCCUGGAAGUUUGGACUGGGCAGAGCUCAACACAGCGUGGCUAAGUGGCUGUGGCUAGACUGCCUCUCUGGAUUCCUCGUCACUCAGCAGGGCAUCUCUGAGAGAAAUGCC was 0.69; that for AACGUAGGUGGUUUUCCCUUGAUAGUGCUAAGGGGGCCUGGAAGUUUGGACUGGGCAGAGCUCAACACAGCGUGGCAAAGUGGCUGUGGCUAGACUGCCUCUCAGGAUUCCUCGUCACUCAGCUGGGCAUCUCUGAGAGAAAUGCC was 1.01.
